# Results taken from the CheMixHub viscosity set.
# Assays:
# [1] = xn = mol fraction of the nth substance listed; conditions: 298.15 K; 101.33 kPa; x1 = 0.7
smiles,measurement,setting,value
c1ccc(Oc2ccccc2)cc1,viscosity,"298.15 K, 101 kPa",0.538 ± 0.014 mPa·s [study A] and 3.66 ± 0.097 mPa·s [study B]
OCCOCCOCCO,viscosity,"293.15 K, 101 kPa",46.7 ± 1 mPa·s [study A] and 41.1 ± 0.27 mPa·s [study B] and 41.01 ± 0.27 mPa·s [study C] and 41.01 ± 0.4 mPa·s [study D] and 41.01 ± 0.27 mPa·s [study E]
same,viscosity,"303.15 K, 101 kPa",29.2 ± 0.7 mPa·s [study A] and 29.24 ± 0.19 mPa·s [study B] and 29.24 ± 0.19 mPa·s [study C] and 29.24 ± 0.19 mPa·s [study D] and 29.24 ± 0.3 mPa·s [study E] and 29.24 ± 0.19 mPa·s [study F] and 29.18 ± 0.23 mPa·s [study G]
Cc1ccccc1C,viscosity,"313.15 K, 101 kPa",0.626 ± 0.006 mPa·s [study A] and 0.625 ± 0.013 mPa·s [study B] and 0.6262 ± 0.0083 mPa·s [study C] and 0.6261 ± 0.017 mPa·s [study D] and 0.5892 ± 0.009 mPa·s [study E]
same,viscosity,"323.15 K, 101 kPa",0.559 ± 0.006 mPa·s [study A] and 0.5586 ± 0.0074 mPa·s [study B] and 0.5584 ± 0.015 mPa·s [study C] and 0.5177 ± 0.0082 mPa·s [study D]
CCCCCCCCCCO,viscosity,"303.15 K, 101 kPa",8.843 ± 1.8 mPa·s [study A] and 9.552 ± 0.7 mPa·s [study B] and 9.066 ± 0.085 mPa·s [study C] and 9.715 ± 0.19 mPa·s [study D] and 9.066 ± 0.049 mPa·s [study E]
same,viscosity,"303.15 K, 101.33 kPa",9.652 ± 1 mPa·s [study A] and 8.835 ± 0.048 mPa·s [study B] and 8.835 ± 0.058 mPa·s [study C] and 8.835 ± 0.087 mPa·s [study D] and 8.843 ± 0.089 mPa·s [study E]
NC(N)=O + C[N+](C)(C)CCO.[Cl-],viscosity,[1],750 ± 99 mPa·s [study A] and 99.47 mPa·s [study B]
CCCCCCCCCCCC,viscosity,"308.15 K, 101.33 kPa",1.106 ± 0.014 mPa·s [study A] and 1.113 ± 0.027 mPa·s [study B] and 1.122 ± 0.016 mPa·s [study C] and 1.111 ± 0.022 mPa·s [study D]

# ± gives the uncertainty stated by the source. Not every entry of the source has a single result; some have several. This list holds those alone. An entry can have further records. The records of an entry are repeats (runs, samples, wells, individuals or studies). Brackets tell where a record comes from. Letters count within one entry.
